From article PMC7537107 (Journal of neurochemistry, 2019)

Target: HA-tagged spinophilin F451A mutant (human, UniProt Q96SB3 1-817, F451A)
Test: co-IP

Chain of UniProt Q96SB3 (Q96SB3 whole entry F451A): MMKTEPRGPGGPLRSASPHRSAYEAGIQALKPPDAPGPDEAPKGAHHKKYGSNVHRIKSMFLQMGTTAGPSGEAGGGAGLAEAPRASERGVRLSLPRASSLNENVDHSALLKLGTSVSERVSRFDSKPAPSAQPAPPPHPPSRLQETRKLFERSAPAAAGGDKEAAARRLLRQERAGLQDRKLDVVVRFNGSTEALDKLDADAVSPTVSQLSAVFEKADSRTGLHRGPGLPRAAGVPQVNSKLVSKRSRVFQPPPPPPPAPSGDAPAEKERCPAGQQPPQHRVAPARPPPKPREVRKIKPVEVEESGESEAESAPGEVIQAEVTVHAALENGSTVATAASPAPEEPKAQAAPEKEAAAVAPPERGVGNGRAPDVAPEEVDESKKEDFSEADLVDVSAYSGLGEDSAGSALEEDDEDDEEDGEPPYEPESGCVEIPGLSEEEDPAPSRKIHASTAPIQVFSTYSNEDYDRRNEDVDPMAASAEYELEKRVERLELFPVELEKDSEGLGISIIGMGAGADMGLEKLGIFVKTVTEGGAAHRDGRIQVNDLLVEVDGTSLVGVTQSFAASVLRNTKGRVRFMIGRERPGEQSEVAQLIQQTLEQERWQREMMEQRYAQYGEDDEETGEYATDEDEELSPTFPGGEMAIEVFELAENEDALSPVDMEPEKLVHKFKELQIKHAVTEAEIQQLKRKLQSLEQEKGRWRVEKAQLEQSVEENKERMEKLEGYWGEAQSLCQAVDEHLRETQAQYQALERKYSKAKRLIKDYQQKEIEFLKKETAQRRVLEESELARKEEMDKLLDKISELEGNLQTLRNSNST

B1: Myc-tagged PP1γ1 (enzyme)
chain: not shown
co-IP of PP1γ1 with F451A spinophilin as ratio to WT spinophilin: 0.379 ratio to WT
